PubChem BioAssay AID1347120 (National Center for Advancing Translational Sciences (NCATS), 2019)
In all, about 390,000 compounds went through this assay and about 930 (0.24%) were called active. This list was built around the results that the source calls inconclusive (neither active nor inactive); the mix of calls is not that of the screen. Calls follow the shape of the dose curve; as a rule, active = well fitted activation curve with a large enough effect; inconclusive = small, poorly fitted or top-dose-only effect; inactive = no such curve, though single readings can be large or run the other way. Potencies beside an inconclusive call are fits to weak or partial responses and may not hold up.
Potency is read from the fitted curve at half-maximal effect; tags tell the direction and shape of the fitted curve.

Assay: qHTS for Suppressors of FUS Proteinopathy: Primary screen using FUS-linked yeast assay; also: nearly all actives have a fitted effect of over 55% in size;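 as to growth rescue (activation): plate controls were DMSO vehicle for no effect and reference control for full effect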
Conditions: S. cerevisiae FUS-expressing, OD600, 24 h; Potency: growth rescue; growth rescue (activation): at 76.6 µM (top of the series)
Outline: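 Read-out: OD at 600 nm after 24hr at 30C, reporting rescue of FUS-induced yeast toxicity. Cells at OD 0.005 in galactose (2%) minimal medium; compounds tested in a dilution series; CP55940 titration from 92uM final as control.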
In the case of `CC(C)(C)N1C(=O)Cc2c1nc(N)c1c(N)nc(N3CCCCC3CO)c(C#N)c21` (stereo not drawn), the Potency was inconclusive: 8.91 µM [activator, partial curve, poor fit].
In the case of `COc1ccc(CN2CC(=O)N(c3ccc(C)c(C)c3)C2=S)cc1OC`, the Potency was inconclusive: 35.5 µM [activator, partial curve, poor fit].
With `Cc1ccc(N(C)C(=O)C2CCN(S(=O)(=O)c3c(C)noc3/C=C/c3c(C)cc(C)cc3C)CC2)cc1` the Potency was “inactive”.
With `CCOC(=O)c1cccc(NC(=O)CC2C(=O)N(c3ccc(OC)cc3)C(=O)N2C2CCCC2)c1` (stereo not drawn) the Potency was inconclusive: 15.8 µM [activator, partial curve, poor fit].
With `C[C@@H]1CCCCO[C@H](CN(C)C(=O)Cc2ccccc2)[C@@H](C)CN([C@H](C)CO)C(=O)c2cc(NC(=O)Nc3ccccc3)ccc2O1` the Potency was inconclusive: 39.8 µM [activator, single point].
In the case of `CCCCC(=O)Nc1c(C)cc(C)cc1Cl`, the growth rescue (activation) was inconclusive: 50.2% [activator].
For `CCOc1ccc(OCC)c(NC(=O)C2CCN(c3nnc(-n4cccc4)s3)CC2)c1`, the Potency was “inactive”.
In the case of `COC(=O)[C@]12CCCCC=C1N(Cc1ccc(OC)cc1)C(=O)[C@@H]2CC(=O)NCc1cccs1`, the Potency was inconclusive: 31.6 µM [activator, partial curve, poor fit].
In the case of `CCN(Cc1ccccc1)S(=O)(=O)c1cc(C(=O)NC2CCCCCC2)ccc1OC`, the Potency was inconclusive: 28.2 µM [activator, single point].
With `CS(=O)(=O)c1ccc(C(=O)Nc2cc(-c3ccccc3)nn2-c2ccccc2)cc1` the Potency was inconclusive: 44.7 µM [activator, single point].
For `CCOC(=O)c1[nH]c2ccc(OC)cc2c1NC(=O)CN1CCSCC1`, the Potency was “inactive”.
For `CC(C)C(NC(=O)c1ccc(C(C)(C)C)cc1)C(=O)NCc1ccccn1` (stereo not drawn), the Potency was “inactive”.
In the case of `CC(=O)c1ccc(NC(=O)CCCSc2nc(-c3ccco3)cc(C(F)(F)F)n2)cc1`, the Potency was “inactive”.
For `CCOc1ccccc1NC(=O)CCC(=O)Nc1ccccc1OCC`, the Potency was “inactive”.
With `Cc1nn(-c2ccccc2)c(C)c1NC(=O)COc1ccc(Br)cc1Cl` the Potency was “inactive”.
In the case of `O=S(=O)(NNC(=S)Nc1ccc(S(=O)(=O)Nc2ncccn2)cc1)c1ccc(Br)cc1`, the Potency was “inactive”.
For `C=Cc1ccc(Cn2c(C)c(CNCCc3ccccc3C)c(C(=O)O)c2C)cc1`, the Potency was inconclusive: 15.8 µM [activator, partial curve, poor fit].
In the case of `CC(Oc1ccc(Cl)cc1Cl)C(=O)NCCCCc1ccccc1` (stereo not drawn), the Potency was inconclusive: 44.7 µM [activator, single point].
